Test results taken from the supplement of paper PMC8728848.
Some of the results follow.

Tests used:
Assay in all cases: glycan array binding signal (z-score within array); higher = stronger binding
Conditions in all cases: glycan notation: IUPAC condensed, linker removed
[1] = molecular target: Gal(b1-4)GlcNAc(b1-2)Man(a1-6)[Man(a1-3)]Man(b1-4)GlcNAc(b1-4)GlcNAc
How it was run: (§1)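 The Consortium for Functional Glycomics database supplied 3228 glycan arrays, of which those lacking an available protein sequence were dropped. The binding signal, a within-array Z-score, was averaged across arrays of the same protein sequence and across linkers. Negative scores can be read as non-binding.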

[2] = molecular target: Gal(b1-4)GlcNAc(b1-2)[Gal(b1-4)GlcNAc(b1-4)]Man(a1-3)[Gal(b1-4)GlcNAc(b1-2)Man(a1-6)]Man(b1-4)GlcNAc(b1-4)GlcNAc
How it was run: as §1

[3] = molecular target: Gal(b1-4)GlcNAc(b1-2)[Gal(b1-4)GlcNAc(b1-4)]Man(a1-3)[Gal(b1-4)GlcNAc(b1-2)[Gal(b1-4)GlcNAc(b1-6)]Man(a1-6)]Man(b1-4)GlcNAc(b1-4)GlcNAc
How it was run: as §1

[4] = molecular target: Gal(b1-4)GlcNAc(b1-2)[Gal(b1-4)GlcNAc(b1-4)]Man(a1-3)[GlcNAc(b1-4)][Gal(b1-4)GlcNAc(b1-2)Man(a1-6)]Man(b1-4)GlcNAc(b1-4)GlcNAc
How it was run: as §1

[5] = molecular target: Gal(b1-4)GlcNAc(b1-2)[Gal(b1-4)GlcNAc(b1-4)]Man(a1-3)[GlcNAc(b1-4)][Gal(b1-4)GlcNAc(b1-2)[Gal(b1-4)GlcNAc(b1-6)]Man(a1-6)]Man(b1-4)GlcNAc(b1-4)GlcNAc
How it was run: as §1

[6] = molecular target: Gal(b1-4)GlcNAc(b1-2)[Gal(b1-4)GlcNAc(b1-6)]Man(a1-6)[Gal(b1-4)GlcNAc(b1-2)Man(a1-3)]Man(b1-4)GlcNAc(b1-4)GlcNAc
How it was run: as §1

[7] = molecular target: Gal(b1-4)GlcNAc(b1-2)[Gal(b1-4)GlcNAc(b1-6)]Man(a1-6)[Gal(b1-4)GlcNAc(b1-2)Man(a1-3)]Man(b1-4)GlcNAc(b1-4)[Fuc(a1-6)]GlcNAc
How it was run: as §1

[8] = molecular target: Gal(b1-4)GlcNAc(b1-2)[Gal(b1-4)GlcNAc(b1-6)]Man(a1-6)[GlcNAc(b1-4)][Gal(b1-4)GlcNAc(b1-2)Man(a1-3)]Man(b1-4)GlcNAc(b1-4)GlcNAc
How it was run: as §1

[9] = molecular target: Gal(b1-4)GlcNAc(b1-2)[Gal(b1-4)GlcNAc(b1-6)]Man(a1-6)[GlcNAc(b1-4)][Gal(b1-4)GlcNAc(b1-2)[Gal(b1-4)GlcNAc(b1-4)]Man(a1-3)]Man(b1-4)GlcNAc(b1-4)[Fuc(a1-6)]GlcNAc
How it was run: as §1

[10] = molecular target: Gal(b1-4)GlcNAc(b1-3)Gal(b1-3)GalNAc
How it was run: as §1

[11] = molecular target: Gal(b1-4)GlcNAc(b1-3)Gal(b1-3)GlcNAc
How it was run: as §1

[12] = molecular target: Gal(b1-4)GlcNAc(b1-3)Gal(b1-4)Glc
How it was run: as §1

[13] = molecular target: Gal(b1-4)GlcNAc(b1-3)Gal(b1-4)GlcNAc
How it was run: as §1

[14] = molecular target: Gal(b1-4)GlcNAc(b1-3)Gal(b1-4)GlcNAc(b1-2)Man(a1-3)[Gal(b1-4)GlcNAc(b1-3)Gal(b1-4)GlcNAc(b1-2)Man(a1-6)]Man(b1-4)GlcNAc(b1-4)GlcNAc
How it was run: as §1

[15] = molecular target: Gal(b1-4)GlcNAc(b1-3)Gal(b1-4)GlcNAc(b1-2)Man(a1-3)[Gal(b1-4)GlcNAc(b1-3)Gal(b1-4)GlcNAc(b1-2)Man(a1-6)]Man(b1-4)GlcNAc(b1-4)[Fuc(a1-6)]GlcNAc
How it was run: as §1

[16] = molecular target: Gal(b1-4)GlcNAc(b1-3)Gal(b1-4)GlcNAc(b1-2)[Gal(b1-4)GlcNAc(b1-3)Gal(b1-4)GlcNAc(b1-6)]Man(a1-6)[Gal(b1-4)GlcNAc(b1-3)Gal(b1-4)GlcNAc(b1-2)Man(a1-3)]Man(b1-4)GlcNAc(b1-4)GlcNAc
How it was run: as §1

[17] = molecular target: Gal(b1-4)GlcNAc(b1-3)Gal(b1-4)GlcNAc(b1-2)[Gal(b1-4)GlcNAc(b1-3)Gal(b1-4)GlcNAc(b1-6)]Man(a1-6)[Gal(b1-4)GlcNAc(b1-3)Gal(b1-4)GlcNAc(b1-2)Man(a1-3)]Man(b1-4)GlcNAc(b1-4)[Fuc(a1-6)]GlcNAc
How it was run: as §1

[18] = molecular target: Gal(b1-4)GlcNAc(b1-3)Gal(b1-4)GlcNAc(b1-3)Gal(b1-4)GlcNAc
How it was run: as §1

[19] = molecular target: Gal(b1-4)GlcNAc(b1-3)Gal(b1-4)GlcNAc(b1-3)Gal(b1-4)GlcNAc(b1-2)Man(a1-3)[Gal(b1-4)GlcNAc(b1-3)Gal(b1-4)GlcNAc(b1-3)Gal(b1-4)GlcNAc(b1-2)Man(a1-6)]Man(b1-4)GlcNAc(b1-4)GlcNAc
How it was run: as §1

[20] = molecular target: Gal(b1-4)GlcNAc(b1-3)Gal(b1-4)GlcNAc(b1-3)Gal(b1-4)GlcNAc(b1-2)Man(a1-3)[Gal(b1-4)GlcNAc(b1-3)Gal(b1-4)GlcNAc(b1-3)Gal(b1-4)GlcNAc(b1-2)Man(a1-6)]Man(b1-4)GlcNAc(b1-4)[Fuc(a1-6)]GlcNAc
How it was run: as §1

[21] = molecular target: Gal(b1-4)GlcNAc(b1-3)Gal(b1-4)GlcNAc(b1-3)Gal(b1-4)GlcNAc(b1-2)[Gal(b1-4)GlcNAc(b1-3)Gal(b1-4)GlcNAc(b1-3)Gal(b1-4)GlcNAc(b1-6)]Man(a1-6)[Gal(b1-4)GlcNAc(b1-3)Gal(b1-4)GlcNAc(b1-3)Gal(b1-4)GlcNAc(b1-2)Man(a1-3)]Man(b1-4)GlcNAc(b1-4)[Fuc(a1-6)]GlcNAc
How it was run: as §1

[22] = molecular target: Gal(b1-4)GlcNAc(b1-3)Gal(b1-4)GlcNAc(b1-3)Gal(b1-4)GlcNAc(b1-3)Gal(b1-4)GlcNAc(b1-2)Man(a1-3)[Gal(b1-4)GlcNAc(b1-3)Gal(b1-4)GlcNAc(b1-3)Gal(b1-4)GlcNAc(b1-3)Gal(b1-4)GlcNAc(b1-2)Man(a1-6)]Man(b1-4)GlcNAc(b1-4)GlcNAc
How it was run: as §1

B1: LecB PA7 (Pseudomonas aeruginosa) (protein)
chain: MATQGVFTLPANTRFGVTAFANSSATQTVKVLVNNETAATFTGQSTNNAVIGSQVLNSGGGGKVQIQVSVNGRSSDLVSAQVILANELNVALVGSEDSTDNDYNDAVVVINWPLG
Question: Which results are given for B1?
Answer: glycan array binding signal (z-score) [1]: 0.916; glycan array binding signal (z-score) [2]: -0.279; glycan array binding signal (z-score) [3]: -0.248; glycan array binding signal (z-score) [4]: -0.514; glycan array binding signal (z-score) [5]: -0.512; glycan array binding signal (z-score) [6]: -0.417; glycan array binding signal (z-score) [7]: 0.553; glycan array binding signal (z-score) [8]: -0.491; glycan array binding signal (z-score) [9]: -0.064; glycan array binding signal (z-score) [10]: -0.502; glycan array binding signal (z-score) [11]: -0.255; glycan array binding signal (z-score) [12]: -0.468; glycan array binding signal (z-score) [13]: -0.503; glycan array binding signal (z-score) [14]: -0.495; glycan array binding signal (z-score) [15]: 0.388; glycan array binding signal (z-score) [16]: -0.226; glycan array binding signal (z-score) [17]: 0.227; glycan array binding signal (z-score) [18]: -0.502; glycan array binding signal (z-score) [19]: -0.489; glycan array binding signal (z-score) [20]: 0.251; glycan array binding signal (z-score) [21]: 0.021; glycan array binding signal (z-score) [22]: -0.439
